From the supplement of paper PMC11417369
The other results are listed elsewhere or left out.

These sequences were tested on PF3D7_0420300 AP2 domain 1 (GST-tagged) (assay: gcPBM binding intensity (ln(normalized median fluorescence intensity)); higher = stronger DNA binding).
Method in brief: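 Alexa488 anti-GST antibody, scanned at 488 nm, detected GST-tagged P. falciparum DNA-binding domains that had been expressed in E. coli and incubated for 1 h on an Agilent 4 × 180k array. The array carried primer-extended double-stranded 36-bp intergenic genomic probes and negative controls. Binding intensity is the highest Masliner-normalised natural-log median intensity across replicate spots of either orientation of each probe.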
In the case of “TATAATTTTTTTAATACACACAAATATTTATATATA [CACACA_site3042]”, the “gcPBM binding intensity (ln)” value is reported as 9.23. With “AATTAATGTTTTGTCACACAGTATGATTATATATAT [CACACA_site6143]” the “gcPBM binding intensity (ln)” value was 9.51. With “AAGAGAAATGGGCACACACACACATATTATATATAT [CACACA_site1531]” the “gcPBM binding intensity (ln)” value was 10.1. In the case of “TATATATACATATACGCATGTAAATTCAAAAGTAAA [TGCATGCA_site956]”, the “gcPBM binding intensity (ln)” value is reported as 9.18. For “TTAGTATATTTTTCCTGTACGTACTCAGATACAAAT [XGTACX_site7397]”, the “gcPBM binding intensity (ln)” value was 9.19. “TTAAATAATTTTTAATGTACATTAAATTTATTATTA [XGTACX_site261]” was tested, and the “gcPBM binding intensity (ln)” value was 8.75. With “TACACATTATGTATCATACACACAAATAAATATATA [CACACA_site608]” the “gcPBM binding intensity (ln)” value was 9.55. In the case of TTCTATTTTTTAAAAGTGCATATTATAAATATATAT, the “gcPBM binding intensity (ln)” value is reported as 9.02. For “AATAGTTCTTGAACGTGTACATAAAATATAATTTAC [XGTACX_site11]”, the “gcPBM binding intensity (ln)” value was 9.17. For “GAAATCTAAATAGAAACACACATATATAAATAAATA [CACACA_site7762]”, the “gcPBM binding intensity (ln)” value was 9.5. With “GAATAATCCAAACACACACACACACCCGAATAAATA [CACACA_site482]” the “gcPBM binding intensity (ln)” value was 10.2. With “TAGTATTTATATGTTATATATATAAAATAATACAGT [XGTACX_negctrl_site571]” the “gcPBM binding intensity (ln)” value was 9.34. “ATATCTAATAAAAATACACACACATATGATTTGTGA [CACACA_site8558]” was tested, and the “gcPBM binding intensity (ln)” value was 9.66. For “TATATAGAATTATATGCATGTTCAAAAAAATACAAC [TGCATGCA_site431]”, the “gcPBM binding intensity (ln)” value was 9.36. With “TATTTTTATTTATAACGTACGAAAAATGTATATAAT [XGTACX_site703]” the “gcPBM binding intensity (ln)” value was 9.16. “GGTGTATGTTAAAGGAGTACATATATATATATATAT [XGTACX_site7727]” was tested, and the “gcPBM binding intensity (ln)” value was 9.3. In the case of “CATACACATTTCATATGTACATAGATTGAAGGGAAG [XGTACX_site116]”, the “gcPBM binding intensity (ln)” value is reported as 9.23. With “TTTTATATATAATTCACACAAAAAAGATACATAAGA [CACACA_site5332]” the “gcPBM binding intensity (ln)” value was 9.25. In the case of “ACAACACATATTCATCGTACATGTATTAGGAAGACA [XGTACX_site1859]”, the “gcPBM binding intensity (ln)” value is reported as 9.37. With “TAAGCAAAAATAATTACACACAAATTTATAAAAAAT [CACACA_site3377]” the “gcPBM binding intensity (ln)” value was 9.64. For “ATTTTGTTTTTTTTTGCACACCATAAGGAGTGTAGG [CACACA_site1414]”, the “gcPBM binding intensity (ln)” value was 9.25. For “ATAAAAATATAATTGAGTACATATGAATAGTCCTAT [XGTACX_site6281]”, the “gcPBM binding intensity (ln)” value was 9.17. In the case of “ATTTTTTTTTTTTTTTTTTTTTTTTTTGAATTCACA [CACACA_negctrl_site982]”, the “gcPBM binding intensity (ln)” value is reported as 8.89. “TATATAAAAATATGTTGTACGCATTTATAAATATAT [XGTACX_site3758]” was tested, and the “gcPBM binding intensity (ln)” value was 9.19. With “AGGATAATATACAAAAGTACATAAAACTAAAAAAAC [XGTACX_site605]” the “gcPBM binding intensity (ln)” value was 9.77. “AAAGAAAGAAAGAATACACACACACCGATATATATA [CACACA_site9246]” was tested, and the “gcPBM binding intensity (ln)” value was 10.2. “AACATATATTTTGAAACACACACATATATAATATAC [CACACA_site8301]” was tested, and the “gcPBM binding intensity (ln)” value was 9.89. “TCCTTTTTACTACTAGTGCATTATTTACAAGGTCCG [GTGCAC_site9441]” was tested, and the “gcPBM binding intensity (ln)” value was 9.07. With “AATGTGTATATATATACACACACATATATATATTTT [CACACA_site8596]” the “gcPBM binding intensity (ln)” value was 9.75. In the case of “TAGTTTTTTATATATTGTACTTAGAATATATTATAT [XGTACX_site3662]”, the “gcPBM binding intensity (ln)” value is reported as 9.2. For “ATATATATAAAATATTATATTAAAAAAAATAAAATA [GTGCAC_negctrl_site87]”, the “gcPBM binding intensity (ln)” value was 9.08. In the case of “ATATAAATATATATATGTACATAATATATTATGTTT [XGTACX_site2806]”, the “gcPBM binding intensity (ln)” value is reported as 9.21. “AATTTAACCACTAAAAGTACACACATATATACATAT [XGTACX_site8352]” was tested, and the “gcPBM binding intensity (ln)” value was 9.68. “GGACACCTTCAAAACACACATACAAATAAATAGAAA [CACACA_site3305]” was tested, and the “gcPBM binding intensity (ln)” value was 9.45. In the case of “TTTTTCTTTTTTTCTTTTTTTATAAAACTTAATTGT [CACACA_negctrl_site384]”, the “gcPBM binding intensity (ln)” value is reported as 9.12. For “AAAAAAAAAAAAAAATATATATATATATACATACAT [CACACA_negctrl_site317]”, the “gcPBM binding intensity (ln)” value was 9.15. With “TATTAATTATATTTATGTACATAATCATATTATTAT [XGTACX_site7938]” the “gcPBM binding intensity (ln)” value was 9.37. In the case of “AGTAACAAAAGAAAAAAATATGCAAACATATATATA [XGTACX_negctrl_site468]”, the “gcPBM binding intensity (ln)” value is reported as 9.45. In the case of “TTCATTTTTTGCTTTCAACACACATACAATATATAT [CACACA_site9369]”, the “gcPBM binding intensity (ln)” value is reported as 9.58. With “AGAAATATATATATATATATATATATATATATATAT [TGCATGCA_negctrl_site375]” the “gcPBM binding intensity (ln)” value was 9.45. With “ATAAATATCTAGGGTTCACACATTATATATCTGTAT [CACACA_site5702]” the “gcPBM binding intensity (ln)” value was 9.36. In the case of “CGTGAATATATGATATGTACTTATAAAAATTTGTGC [XGTACX_site5480]”, the “gcPBM binding intensity (ln)” value is reported as 9.26. With ACAAAGTTATAATTCTTGCACTTTAAGGTTCATTTA the “gcPBM binding intensity (ln)” value was 9.2. For “GGTATACACAAGTATACACACATATATATATATATA [CACACA_site9063]”, the “gcPBM binding intensity (ln)” value was 9.37. For “TTTTCCTCTTAAAATATACACACTGATTTAAGAAAA [CACACA_site3301]”, the “gcPBM binding intensity (ln)” value was 8.95. “TTTTTTTTTTTTTTTTTTTTTTTTTTGTTCAGGCCT [GTGCAC_negctrl_site143]” was tested, and the “gcPBM binding intensity (ln)” value was 8.54. For “ACGTAATAAAATAGTTGTACAACTTTTTATAATATA [XGTACX_site4393]”, the “gcPBM binding intensity (ln)” value was 9.18. “AAACGATTAATGTGTACACACATAGTTATAAACCTA [CACACA_site2110]” was tested, and the “gcPBM binding intensity (ln)” value was 9.55. For “TCATAAATATGAAAAAGTACAAAGGTAGATTTTGAA [XGTACX_site4535]”, the “gcPBM binding intensity (ln)” value was 9.18. With “TATATATATATTATATGTACGTATGTATGTATATAT [XGTACX_site6451]” the “gcPBM binding intensity (ln)” value was 9.39. In the case of “TCATATATTTTATACATACACACATATATATATTTT [CACACA_site3941]”, the “gcPBM binding intensity (ln)” value is reported as 9.74. “ACGTTATACACAGTACGTACATAACTATCTAAATGT [XGTACX_site5068]” was tested, and the “gcPBM binding intensity (ln)” value was 9.21. In the case of “TGGAGGTCAGTTCACAGTACCCAGGAAATCTGCGGA [XGTACX_site2556]”, the “gcPBM binding intensity (ln)” value is reported as 8.75. With “ATGCATAATATACTCTTACACACCATTTCTATATAC [CACACA_site1461]” the “gcPBM binding intensity (ln)” value was 9.78. With “TTCACTTTTTTTTTTTTTTTTTTTTTTTTTTTTATT [GTGCAC_negctrl_site350]” the “gcPBM binding intensity (ln)” value was 9.18. In the case of “TATAACATAGGACACACACACATACATACACAAAAA [CACACA_site5062]”, the “gcPBM binding intensity (ln)” value is reported as 10.2. For “TTTACAACATCAAAATGTACGCATTATTATTATTAA [XGTACX_site3017]”, the “gcPBM binding intensity (ln)” value was 9.
